The whole screen tested about 310,000 compounds, of which about 14,000 (4.5%) showed an effect of 50% or more. Effects have a minus sign here. This is one part of the list.
Molecular target: human ether-à-go-go-related gene (hERG) potassium channel (human, UniProt Q12809)
Assay: primary screen, population patch clamp on CHO cells stably expressing hERG
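Note: peak tail current of the secondary pulse compared with the same well before compound.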

Sequence of human ether-à-go-go-related gene (hERG) potassium channel (Q12809 whole entry, looked up): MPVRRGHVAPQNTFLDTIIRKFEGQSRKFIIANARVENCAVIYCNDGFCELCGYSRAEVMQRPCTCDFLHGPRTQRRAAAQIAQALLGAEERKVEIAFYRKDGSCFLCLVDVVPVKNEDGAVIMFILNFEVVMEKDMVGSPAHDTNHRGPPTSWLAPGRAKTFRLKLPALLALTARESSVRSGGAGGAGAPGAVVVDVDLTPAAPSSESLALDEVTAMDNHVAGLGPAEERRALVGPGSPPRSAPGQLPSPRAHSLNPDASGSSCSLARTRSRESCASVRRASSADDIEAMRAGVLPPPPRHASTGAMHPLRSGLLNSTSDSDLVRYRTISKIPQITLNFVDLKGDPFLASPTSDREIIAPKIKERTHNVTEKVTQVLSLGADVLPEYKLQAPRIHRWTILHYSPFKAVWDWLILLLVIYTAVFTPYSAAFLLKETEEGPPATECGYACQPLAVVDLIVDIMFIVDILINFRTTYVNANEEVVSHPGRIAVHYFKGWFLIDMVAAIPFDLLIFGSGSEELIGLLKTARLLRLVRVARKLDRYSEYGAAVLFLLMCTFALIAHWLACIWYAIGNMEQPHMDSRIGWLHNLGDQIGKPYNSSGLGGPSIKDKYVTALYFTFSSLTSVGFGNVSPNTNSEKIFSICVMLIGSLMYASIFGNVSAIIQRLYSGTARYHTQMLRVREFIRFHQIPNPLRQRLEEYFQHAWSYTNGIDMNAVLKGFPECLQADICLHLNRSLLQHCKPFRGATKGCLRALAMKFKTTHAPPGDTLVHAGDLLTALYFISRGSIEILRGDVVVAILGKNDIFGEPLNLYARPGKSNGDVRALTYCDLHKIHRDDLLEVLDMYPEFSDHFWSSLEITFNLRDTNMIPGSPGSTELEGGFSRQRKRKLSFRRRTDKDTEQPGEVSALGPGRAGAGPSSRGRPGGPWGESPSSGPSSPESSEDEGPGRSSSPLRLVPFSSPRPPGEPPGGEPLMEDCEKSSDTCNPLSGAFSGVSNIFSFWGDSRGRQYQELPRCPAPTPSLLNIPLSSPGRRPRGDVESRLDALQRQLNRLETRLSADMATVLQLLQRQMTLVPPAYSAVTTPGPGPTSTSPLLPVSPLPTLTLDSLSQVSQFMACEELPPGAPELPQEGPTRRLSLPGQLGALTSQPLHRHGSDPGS

Compound	hERG current change (%, negative = inhibition) at 10uM
C=CCn1c(O)c(/C=N/N2CCCCC2)c(=O)[nH]c1=O	-44.2%
O=C(NC1=NCCS1)c1ccc(N2CCCC2=O)cc1	22.3%
O=C(CSc1ccc(F)cc1)N1CCC(c2nc3ccccc3s2)CC1	-67.1%
COc1cc(C(=O)Nc2nc(C)cc(C)n2)cc(OC)c1OC	9.87%
CCNC(=O)CSc1nnc(-c2ccc(OC)cc2)n1CC(C)C	-3.51%
Cc1cccc(C(C)C)c1NC(=O)CSc1nncn1C	3.98%
CCN1CCC(n2nccc2NC(=O)c2ccccc2Cl)CC1	-21%
CCc1nc(SCC(=O)O)c2c3c(sc2n1)COC(C)(C)C3	23.2%
Cl.OCCN1CCN(CCSc2ccccc2)CC1	-8.59%
Cc1[nH]c(=O)[nH]c(=O)c1NS(=O)(=O)c1ccc2c(c1)CCCC2	13.8%
O=C(Nc1cccc(Cl)c1)c1cnc[nH]1	14.5%
O=C(Nc1nccs1)c1ccc(-c2ccc(F)c(Cl)c2)o1	-3.09%
CC1CCCCN1C(=O)CCn1c(=O)oc2ccccc21 (centres unmarked)	13.3%
Cc1ccc(S(=O)(=O)Nc2ccc(S(=O)(=O)Nc3cc(C)nc(C)n3)cc2)cc1	23.3%
Cc1sc(NC(=O)/C=C/c2ccc(C(C)C)cc2)c(C#N)c1C	1.67%
CCOC(=O)CCCC(=O)N1CCOCCOCCN(C(=O)CCCC(=O)OCC)CCOCCOCC1	10.5%
O=c1oc2ccc(Br)cc2cc1S(=O)(=O)c1ccc(F)cc1	-0.784%
Cc1ccc(-n2nc3c4c(cccc4c2=O)-c2ccccc2-3)cc1	-5.9%
O=C1COc2ccc(C(=O)CSc3ccc(Br)cc3)cc2N1	8.96%
COc1ccc(S(=O)(=O)NNC(=O)c2ccc(-n3c(C)ccc3C)cc2)cc1	15.6%
CCN(CC)C(=O)CN(c1ccc(C)cc1)S(=O)(=O)c1ccc(SC)cc1	-28.5%
Cc1ccc(C(=O)C(C)Sc2nnc(N)s2)cc1 (centres unmarked)	0.236%

Compound	hERG current change (%, negative = inhibition) at 10uM
CCCCCC1=CCC/C1=N\NC(=O)c1ccc2c(c1)OCO2	-3.16%
Cc1nnc(NC(=O)CSc2nnc(C)n2-c2ccc(F)cc2)s1	23.6%
O=C(COc1cccc2cccnc12)N/N=C/c1cccn1-c1ccc(F)cc1	-14%
CCCCC(=O)N/N=C/c1ccc(N2CCOCC2)c([N+](=O)[O-])c1	-10.6%
Cc1nc(N2CCN(c3ccccn3)CC2)c2c(C)c(C(=O)N3CCN(c4cccc(Cl)c4)CC3)sc2n1	2.31%
O=C(NC1CCCC1)C(c1ccc(Cl)cc1)N1CCc2ccccc21 (centres unmarked)	11.9%
CCOC(=O)N1CCN(CCC(=O)Nc2ccc(OC)cc2)CC1	-1.76%
Cn1c(CCNC(=O)c2ccc(Cl)cc2)n[nH]c1=S	14.5%
CC(C)NC(=O)c1onc(CSc2ccccn2)c1C(=O)NC(C)C	9.42%
CN=C(C)/C(C(=O)OC)=C(/O)c1c(F)cccc1F	7.13%
CC1CCN(C(=O)CSc2nncn2-c2ccccn2)CC1	-14.4%
N#CC1=C(N)Oc2cc(N)ccc2C1c1ccccc1Cl (centres unmarked)	6.56%
O=C(COc1ccc(C(F)(F)F)cc1[N+](=O)[O-])Nc1cccc(C(F)(F)F)c1	5.11%
COCCNC(=O)[C@H](CSCc1ccccc1)N1Cc2ccccc2C1=O	-42.6%
Cc1cccc(NS(=O)(=O)c2cccc(C(=O)N3CCCC(C(F)(F)F)C3)c2)c1 (centres unmarked)	-19.4%
CC(C)c1ccc(C(C(=O)NC2CCCC2)N(C(=O)CNC(=O)c2ccco2)c2cccnc2)cc1 (centres unmarked)	0.376%
Cc1ccc2nsnc2c1NC(=O)c1ccc2c(c1)OCCO2	6.41%
CCN(CC)S(=O)(=O)c1cc(C(=O)OC(C)C(=O)NCc2ccco2)ccc1C (centres unmarked)	-15.8%
CSCc1ccc(C(=O)NC(C)c2cnn(-c3ccccn3)c2C)o1 (centres unmarked)	-0.643%
O=S(=O)(c1ccc(Cl)c(NC(=S)N/N=C/c2ccc(O)cc2)c1)N1CCOCC1	-21.1%
Cc1cc(C)n2nc(Cc3ccccc3)nc2n1	-9.09%
Cc1ccc(Nc2nc(NCCCN3CCOCC3)nc(N)c2[N+](=O)[O-])cc1	-66.1%

— publication PMC4336329 (PLoS ONE, 2015)
